Laboratory results taken from PubChem BioAssay AID1159614 (National Center for Advancing Translational Sciences (NCATS), 2016).
About 65 (0.1%) of roughly 45,000 compounds were called active. The call rests on the fitted dose curve; in most records, active means well fitted activation curve with a large enough effect; inconclusive means small, poorly fitted or top-dose-only effect; inactive means no such curve, though single readings can be large or run the other way. The list shows a part of the results.

These compounds were tested against Galactocerebrosidase (Homo sapiens) (UniProt P54803) (assay: A Novel Cell-Based Assay to Identify Small Molecules for B -Galactocerebrosidase). Settings: 145M-Twi-hGALC-G270D cells (Twitcher mouse brain line with human GALC G270D), HMU-beta-Gal fluorescence, 48 h; series mostly up to 57.5 µM; activation: at the top concentration.
UniProt P54803, sequence (P54803 whole entry, looked up): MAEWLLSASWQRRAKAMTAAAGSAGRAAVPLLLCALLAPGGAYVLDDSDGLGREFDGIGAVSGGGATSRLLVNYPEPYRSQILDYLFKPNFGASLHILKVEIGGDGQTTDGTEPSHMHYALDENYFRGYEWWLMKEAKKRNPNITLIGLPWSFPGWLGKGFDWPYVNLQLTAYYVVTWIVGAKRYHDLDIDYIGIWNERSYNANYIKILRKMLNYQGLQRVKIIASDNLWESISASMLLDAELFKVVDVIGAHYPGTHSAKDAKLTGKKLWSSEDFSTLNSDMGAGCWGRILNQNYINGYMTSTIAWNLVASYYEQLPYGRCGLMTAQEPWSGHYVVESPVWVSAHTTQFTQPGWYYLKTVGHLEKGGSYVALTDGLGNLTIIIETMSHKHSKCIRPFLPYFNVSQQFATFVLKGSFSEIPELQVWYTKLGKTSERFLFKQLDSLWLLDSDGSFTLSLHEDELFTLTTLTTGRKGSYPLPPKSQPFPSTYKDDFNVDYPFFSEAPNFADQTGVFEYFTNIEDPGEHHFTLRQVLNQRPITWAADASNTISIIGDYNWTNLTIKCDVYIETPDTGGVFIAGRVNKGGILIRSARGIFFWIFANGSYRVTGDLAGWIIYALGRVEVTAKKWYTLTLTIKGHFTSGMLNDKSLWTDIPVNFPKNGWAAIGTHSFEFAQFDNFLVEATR
Source text: Lysosomal storage diseases (LSDs) are caused by genetic mutations in genes encoding proteins important for normal lysosomal function. Globoid cell leukodystrophy (GLD), mostly known as Krabbe disease, is a prototype of the neurological LSDs caused by deficiency of beta-galactocerebrosidase (GALC). In brain specimens of GLD patients, psychosine levels are substantially elevated. At elevated concentrations, psychosine becomes cytotoxic to neuronal cells, particularly to oligodendrocytes (OLG), neural cells responsible for myelin formation. Therefore, the biochemical disturbances in GLD are manifested by different degrees of brain demyelination resulting in a broad spectrum of neurological manifestations. Most of the FDA-approved therapies are based on enzyme replacement therapeutic (ERT) agents, which treat non-neurological symptoms of Gaucher disease, Fabry disease, few mucopolysaccharidoses and Pompe disease. Unfortunately, in GLD, a primarily neurological LSD, ERT agents, as large molecular weight molecules unable to cross the blood-brain barrier, which makes this an inefficacious therapeutic approach. In GLD, increasing the residual GALC activity just above the critical threshold (~10% of wild type enzymatic activity), the cytotoxic levels of psychosine will be reduced, avoiding the OLGs apoptosis and the subsequent demyelination process. This will translate in disease stabilization and amelioration of GLD patient symptoms.
A cell-based assay in 1,536-well plate format was developed to implement a quantitative high-throughput screening (qHTS) assay using GLD-disease relevant cells to identify small molecules that produce enhancements of the residual enzymatic activity levels of mutants GALC found and prevalent in GLD patients. Compounds that are active may therefore have some therapeutic application for GLD. After the treatment of live cells for a determined period, using a fluorescent GALC specific substrate, the mutant residual GALC activity is measured. This cell-based qTHS assay was used to screen part of the MLPCN library for small molecule able to increase the mutant GALC enzymatic activity. In this assay, increased fluorescent signal corresponds to enhanced levels of mutant GALC residual enzymatic activity. Activation is the desired outcome for this assay.
NIH Chemical Genomics Center [NCGC]
NIH Molecular Libraries Probe Centers Network [MLPCN]
Assay Submitter (PI): Gustavo Maegawa MD,PhD, University of Florida, Gainesville, FL
2)#Two cell lines were established for the assay: 145M-Twi-hGALC-G270D (brain-derived Twitcher cell line stably expressing human GALC-G270D) and 145M-Twi-hGALC-WT (same 145M-Twi stably expressing human GALC wild type). The Twitcher is the murine C57B/6 model for GLD with naturally occurring homozygous nonsense GALC mutation. The 145M-Twi cell line was established at Maegawa lab (Ribbens J et al 2014).
a.#Media: DMEM/F12 (1:1) with 10% fetal bovine-serum (FBS) with penicillin/streptomycin (PS-1X - 100 I.U./mL of penicillin+100 ug/mL of streptomycin).
b.#The 6-Hexadecanoylamino-4-methylumbelliferyl-b-D-galactoside (HMU-B-gal) substrate was prepared as per Wiederschain et al 1992. Using 20-mL borosilicate tubes, 2.20 mg of HMU-b-Gal was added in each tube to prepare substrate-film with a final air-nitrogen stream evaporation to remove all diluent solvents.
c.#The HMUb-Gal substrate buffer consists of 0.2 M Na2HPO4 (sodium phosphate dibasic)/ 0.1 M Citric Acid with the pH adjusted to 5.2 using HCl. Sodium Azide at 0.02% and Sodium Taurocholate (NaTC) at 1 mg/mL were added to this substrate buffer.
d.#The HMU-b-Gal stopping buffer consist of 0.5 M NaHCO3 (sodium bicarbonate) /0.5 M Na2CO3 (sodium carbonate). […] Triton X-100 at 0.25% was added.
4)#Preparation of HMU-b-Gal substrate tubes
Adding 18.6 mL of the HMUb-Gal substrate buffer to each 20-mL tube (2.20 mg of HMU-b-Gal) will reach a concentration of 0.2 mM. Vortex well the tube until the solution is fully homogenized (clear cloudy solution). […]
Further: 0% is about no effect; nearly all actives have a fitted effect of over 65% in size.

activation, inactive:
COC(=O)c1c(NC(=O)COc2c(C)ccc(C)c2C)sc2c1CCC(C)C2 (configuration not stated) -8.64%, CC1=C(C(=O)Nc2cccnc2)C(c2ccc(Cl)cc2)n2nc(SCc3ccccc3)nc2N1 (configuration not stated) -7.06%, Cc1ccc(-n2nc(C(=O)Nc3cccc(C#N)c3)c3c4ccccc4n(C)c3c2=O)cc1 0.235%, Cc1cc2n(n1)CCC(=O)N2Cc1ccc(C(=O)Nc2ccc(Br)c(C)c2)cc1 -13.1%, CCCN1CCN(c2ncnc3sc(C(=O)Nc4cccc(Cl)c4C)c(C)c23)CC1 -15.3%, O=C(NCCc1ccc(Cl)cc1)c1nc(-c2cccc(F)c2)n2c1CCCCC2 -15.9%, CCOc1ccc(NC(=O)[C@H](Cc2ccccc2)N2Cc3ccccc3C2=O)cc1 -0.286%, CCN(CC)c1cc2c(cc1F)c(=O)c(S(=O)(=O)c1ccc(C)cc1)cn2Cc1ccc(F)cc1 -11%, CCCSc1nc2c(c(=O)[nH]1)C(c1ccc(F)cc1F)CC(=O)N2 (configuration not stated) -8.87%, O=C(Cn1ncc2ccsc2c1=O)N1CCN(c2ccccc2)CC1 -17%, CCCc1nnc(NC(=O)Cc2coc3ccc(C)cc23)s1 -14.3%, Brc1ccc(CN2CCc3nc(N4CCN(c5ncccn5)CC4)ncc3C2)cc1 -4.07%, O=C(Cn1c(=O)n(CCc2ccccc2)c(=O)c2c3c(sc21)CCCC3)Nc1ccc(F)c(F)c1 -5.26%, CCOc1ccccc1Nc1sc(C(=O)c2ccc(Cl)cc2)c(N)c1C(=O)NCCc1ccccc1 14.6%, CCOC(=O)c1c(C)c(C(=O)NCc2ccc(Cl)cc2)c(C)n1CC -8.49%, CCC1CCc2nc3sc(C(=O)Nc4ccc(F)c(F)c4)c(N)c3cc2C1 (configuration not stated) -12%, COc1ccc(NC(=O)CSc2nc3c(c(=O)[nH]2)CCC3)cc1 -6.96%, Cn1c(-c2ccc(S(=O)(=O)N3CCCC3)cc2)csc1=Nc1ccc(Cl)c(Cl)c1 -21.6%, CC(C)c1ccccc1Oc1c(C(F)(F)F)oc2c(CN3CCN(C)CC3)c(O)ccc2c1=O -4.01%, COc1ccccc1N1CCN(C(=O)c2cc3c(=O)oc4ccc(C)cc4c3s2)CC1 0.75%, CCOc1ccc(-c2nc(CNC(=O)Nc3ccccc3)c(C)o2)cc1 -23.1%, Cc1ccc(CNC(=O)c2cn(C)c3ccc(S(=O)(=O)N4CCOCC4)cc3c2=O)cc1 -8.51%, COc1ccc(NCc2cc3ccc(OC)cc3n(CC(=O)Nc3cccc(OC)c3)c2=O)cc1 1.34%, Cc1ccccc1NC(=O)CSc1nc2ccccc2c2nc(CCn3c(C)nc4ccccc43)nn12 -12.1%, CC(C(O)c1ccc(O)cc1)N1CCC(Cc2ccccc2)CC1 (configuration not stated) -17.8%, O=C(COCc1cc(-c2cccs2)on1)NCc1cccc(Cl)c1 -19.4%, Cc1cc(C)c(/C=C/c2onc(C)c2S(=O)(=O)N2CCC(C(=O)Nc3ccc(Cl)cc3C)CC2)c(C)c1 -7.78%, COc1cc(NC(=O)c2nn(-c3ccc(F)cc3)c(=O)n(C)c2=O)cc(OC)c1OC -18.4%, CCn1c(C(=O)N2CCC(C(=O)NCCCOC)CC2)cc2sccc21 -8.73%, Cc1cn(S(=O)(=O)c2ccc(F)c(Cl)c2)cn1 -6.66%, CCOc1ccc(/C=C/c2nc(C#N)c(Nc3ccc(OCC)cc3)o2)cc1 -7.99%, Cc1c(-c2ccccc2)c(=O)oc2c(CN3CCCC3)c(O)ccc12 -29.8%, CCc1ccc(C2CC(=O)NC(NC(=O)c3ccc(C(C)(C)C)cc3)=N2)cc1 (configuration not stated) -13%, CC1CC(=O)N(CC(=O)Nc2ccc(F)cc2F)c2ccccc2S1 (configuration not stated) 6.04%, O=C(CCCn1ccc2cc(S(=O)(=O)N3CCCC3)ccc21)NCc1ccc(Cl)cc1 -22.7%, COc1ccc(NC(=O)Nc2cccc(-c3cn4cccnc4n3)c2)cc1 -5.6%, O=C(NCCc1ccc(Cl)cc1)c1ccc2c(c1)N(Cc1ccccc1F)C(=O)c1ccccc1S2(=O)=O -12.5%, Cc1nc2ccn(Cc3ccccc3)c(=O)c2cc1C(=O)NCc1ccccc1F -25.8%, COc1cccc(CNC(=O)CN2C(=O)COc3ccc(S(=O)(=O)N4CCCCCC4)cc32)c1 -2.78%, CCOc1ccc(NC(=O)Cn2c(=O)n(Cc3ccc(C(=O)NCc4ccc(C)cc4)cc3)c(=O)c3ccccc32)cc1 -9.6%, CN(C)c1ccc(NC(=O)CN2CCN(CC(=O)Nc3ccc(Br)cc3)CC2)cc1 1.37%, Cc1ccc(CNC(=O)c2cc3c(s2)-c2ccc(Cl)cc2SC3)cc1 1.47%, Cc1ccc(CSC2=Nc3ccccc3C3=NC(CC(=O)NCc4cccs4)C(=O)N23)cc1 (configuration not stated) -7.5%, O=c1cc(-c2ccccc2)oc2ccccc12 -3.8% [at 114 µM], Cc1ccc(-c2nc3ncccc3o2)cc1NC(=O)c1ccccc1Br -24.3%, O=C(NCC1CCCO1)c1c[nH]c2ccc(S(=O)(=O)Nc3ccc(F)cc3F)cc2c1=O (configuration not stated) -5.16%, CC(C)(C)c1ccc(-c2nc(S(=O)(=O)c3ccccc3)c(N3CCOCC3)o2)cc1 -14.4%, CCOc1ccc(NC(=O)NCCn2nnc3cc(S(=O)(=O)N(C)C)ccc32)cc1 -13.3%, O=C(c1cccc(F)c1)N1CCC(c2c[nH]c3ccccc23)(c2c[nH]c3ccccc23)CC1 -6.57%, COc1ccc(C(=O)Nc2nnc(S(=O)(=O)N3CCC(C)CC3)s2)cc1OC -20.6%, CCN(C(=O)C1CCCN(c2ncnc3onc(-c4ccc(F)cc4)c23)C1)c1ccccc1 (configuration not stated) -27.1%, CCOc1ccc(C(CC(=O)Nc2cc(C)c(Cl)cc2OC)N2Cc3ccccc3C2=O)cc1OC (configuration not stated) -6.67%, CC1CCCCN1Cc1c(O)ccc2c(=O)c(-c3ccccc3)coc12 (configuration not stated) 1.3%, COc1cccc(CNS(=O)(=O)c2ccc(N3CCCCS3(=O)=O)cc2)c1 -11%, CCOC(=O)C1=C(CN2CCCCC2)NC(=O)NC1c1ccc(C)cc1 (configuration not stated) 4.6%, Cc1ccc(CNC(=O)c2sc3nc(-c4ccc(F)cc4)ccc3c2N)cc1 1.52%, COc1ccc(Cn2ccc3nc(C)c(C(=O)NCc4ccc(OC)cc4OC)cc3c2=O)cc1 -1.79%, COC(=O)c1ccccc1NC(=O)CCc1c(C)nc2c(c(C)nn2-c2ccccc2)c1C -12.3%, COc1ccc(-n2nnc(-c3nc(-c4ccccc4C)no3)c2N)cc1Cl -7.98%, COc1ccc(C2CC(=O)c3c([nH]c(C(=O)OC4CCCCCC4)c3C)C2)cc1OC (configuration not stated) -13.1%, COc1cccc(CNC(=O)CCCn2nc(C)n3c(cc4sccc43)c2=O)c1 -7.56%, CCOC(=O)c1cnc2c(C)cc(Cl)cc2c1NCCc1ccc(OC)c(OC)c1 5.01%, O=C(Cn1ncc2c([nH]c3ccccc32)c1=O)NCc1cccc(Cl)c1 -9.44%, COc1ccc(NC(=O)C(C)n2c(C)c3cnn(-c4ccccc4)c(=O)c3c2C)cc1Cl (configuration not stated) -22.3%, CCOC(=O)c1cc(-c2ccc(F)cc2)n(CCC(=O)NCc2ccccc2OC)c1C -41.6%, CC(C)COc1ccc(-c2nonc2NC(=O)c2ccc(F)cc2)cc1 -0.126%, O=C(NCCc1ccccc1)c1ccc(CSc2nc3ccncc3n2Cc2ccccc2F)cc1 -17%, Cc1ccc(N2CC(NC(=O)c3ccco3)CC2=O)cc1C (configuration not stated) -3.76%, O=C(Nc1nnc(S(=O)(=O)N2CCCC2)s1)c1ccccc1F 1.75%, Cc1cccc(OCC(=O)N(Cc2ccc(C(C)C)cc2)Cc2ccco2)c1C -11.8%, CCN(C(=O)c1nn(-c2ccc(C)cc2)c(=O)c2c1c1ccccc1n2C)c1ccc(F)cc1 -4.58%, COc1ccc(CNC(=O)CN2C(=O)CSc3ccc(S(=O)(=O)N4CCCC4)cc32)cc1 -20.9%, CCCCNC(=O)CN1C(=O)COc2ccc(S(=O)(=O)N3CCCC3)cc21 -4.38%, CCCn1c2ccccc2c2cnn(CC(=O)NCc3cc(OC)ccc3OC)c(=O)c21 -14.6%, O=C(Nc1ccccc1OCc1cc(=O)n2ccccc2n1)c1ccccc1F -8.03%, CC1=C(C(=O)OCC2CCCCC2)C(c2ccc(Cl)cc2Cl)CC(=O)N1 (configuration not stated) -5.14%, CSc1cccc(NC(=O)Cn2cnc(S(=O)(=O)N3CCCC3)c2)c1 -8.77%, Cc1ccc(C)c(Nc2nc3nonc3nc2Nc2cccc(C)c2C)c1 -5.86%, COc1ccc(Cl)cc1NC(=O)N1CCC(CN2CCCCCC2)CC1 -5.7%, Cc1cccc(Cn2cc(C(=O)Nc3ccc(S(N)(=O)=O)cc3)ccc2=O)c1 -7.72%, CCc1ccccc1NC(=O)C(C)n1nc(-c2ccc(C)c(C)c2)ccc1=O (configuration not stated) -10.6%, COc1ccc(NC(=O)CN(C)S(=O)(=O)c2cccc3nsnc23)cc1 -13.9%, COC(=O)N/N=C/c1c[n+]([O-])c2ccccc2[n+]1[O-] 5.88%, COc1cc2nc(Nc3ccc(F)cc3)nc(N)c2cc1OC -7.69%, COC(=O)c1ccc(Cn2nnc3sc4c(c3c2=O)CCCC4)cc1 -15.4%, COc1ccc(CNC(=O)C(=O)NCC(c2ccco2)S(=O)(=O)c2ccc(C)cc2)cc1 (configuration not stated) 2.76%, CCOC(=O)c1cccc(NC(=O)C(Cc2ccccc2)NS(=O)(=O)c2cccc3nsnc23)c1 (configuration not stated) -5.88%, CC(=O)c1ccc(NC(=O)c2nc3ccccc3n(C)c2=O)cc1 -21%, CN(C(=O)CN(CCO)CC(=O)N(C)C(C)(C)Cc1ccccc1)C(C)(C)Cc1ccccc1 -7.63%, CCn1nc(C)c2c(-c3ccccc3)cc(=O)n(C(C)C(=O)NCc3ccc(C)cc3)c21 (configuration not stated) -33.4%, CCCCCNC(=O)CCn1c(=O)[nH]c2ccccc2c1=O -15.8%, CCN(CC)c1ccc(NC(=O)c2cc3c(=O)n4cccc(C)c4nc3n2C)c(C)c1 1.26%, O=C(CSC1=Nc2ccccc2N=C(c2ccc(F)cc2)C1)NCc1ccc(Cl)cc1 -13.5%, Cc1cc(S(=O)(=O)NCC(c2ccc(N(C)C)cc2)N2CCOCC2)ccc1F (configuration not stated) -11.1%, Cc1ccc(CN(C(=O)COc2ccc(Cl)cc2Cl)C2CCS(=O)(=O)C2)o1 (configuration not stated) -17.8%, Cc1[nH]c(=O)[nH]c(=O)c1S(=O)(=O)N1CCN(c2cccc(Cl)c2)CC1 -5.11%, COc1ccc(/C=C/c2nc3ccccc3c(=O)n2-c2cccc(C(F)(F)F)c2)cc1 -15.9%
